This is one part of the list. The full chains were built here from the parent and the listed change. Values near 0.05 are background.
B1: TEV protease; numbered along this chain (parent)
chain: MGESLFKGPRDYNPISSSICHLTNESDGHTTSLYGIGFGPFIITNKHLFRRNNGTLVVQSLHGVFKVKDTTTLQQHLVDGRDMIIIRMPKDFPPFPQKLKFREPQREERICLVTTNFQTKSMSSMVSDTSCTFPSGDGIFWKHWIQTKDGQCGSPLVSTRDGFIVGIHSASNFTNTNNYFTSVPKNFMELLTNQEAQQWVSGWRLNADSVLWGGHKVFMVKPEEPFQPVKEATQL

Variants of: B1
Assay: raw area under fraction-flipped curve 0-4 h after induction (AUC4h, not background-subtracted), DNA-recorder readout of cleavage of the substrate (dimensionless); higher = more cleavage of the substrate by the protease variant
Settings: temperature: 34 °C; time window: 0-4 h after rhamnose induction
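Further: Bxb1 expression induced with 0.2% (w/v) L-rhamnose at OD600 near 0.5, cultures sampled hourly, flipped fraction per protease–substrate barcode pair counted by paired-end Illumina sequencing.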

Row | Variant | area with substrate ENLYHQS | area with substrate ENLYMQS | area with substrate ENLYNQS | area with substrate ENLYSQS | area with substrate ENLYVQS | area with substrate ENLYRQS | area with substrate ENLYIQS | area with substrate ENLYQQS | area with substrate ENLYWQS | area with substrate ENLYYQS
1 | MGESLFKGPRDYNPISSSICHLTNESDGHTTSLYGIGFGPFIITNKHLFRRNNGTLVVQSLHGVFKVKDTTTLQQHLVDGRDMIIIRMPKDFPPFPQKLKFREPQREERICLVTTNFQTKSMSSMVSDTSCTFPSGDGIFWKHWIQTKDGQCGSPLVSTRDGFIVGIHSASEFTNTNNYFTSVPKNFMELLTNQEAQQWVSGWRLNADSVLWGGHKVFMVKPEEPFQPVKEATQL [N172E] | 0.0537 | 0.0725 | 0.0838 | 0.0519 | 0.0187 |  |  |  |  | 
2 | MGESLFKGPRDYNPISSSICHLTNESDGHTTSLYGIGFGPFIITNKHLFRRNNGTLVVQSLHGVFKVKDTTTLQQHLVDGRDMIIIRMPKDFPPFPQKLKFREPQREERICLVTTNFQTKSMSSMVSDTSDTFPSGDGIFWKHWIQTKDGQCGSPLVSTRDGFIVGIHSASNFTNTNNYFTSVPKNFMELLTNQEAQQWVSGWRLNADSVLWGGHKVFMVKPEEPFQPVKEATQL [C131D] | 0.0686 |  | 0.0722 | 0.0611 |  | 0.049 |  |  |  | 
3 | MGESLFKGPRDYNPISSSICHLTNESDGHTTSLYGIGFGPFIITNKHLFRRNNGTLVVQSLHGVFKVKDTTTLQQHLVDGRDMIIDRMPKDFPPFPQKLKFREPQREERICLVTTNFQTKSMSSMVSDTSCTFPSGDGIFWKHWIQTKDGQCGSPLVSTRDGFIVGIHSASNFTNTNNYFTSVPKNFMELLTNQEAQQWVSGWRLNADSVLWGGHKVFMVKPEEPFQPVKEATQL [I86D] |  | 0.0287 |  |  |  | 0.0452 | 0.0516 | 0.0314 | 0.054 | 0.0401
4 | MGESLFKGPRDYNPISSSICHLTNESDGHTTSLYGIGFGPFIITNKHLFRRNNGTLVVQSLHGVFKVKDTTTLQQHLVDGRDMIIIRMPKDFPPFPQKLKFREPQREERICLVTTNFQTKSMSSMVSDTSCTFPSGDGIFWKHWIQGKDGQCGSPLVSTRDGFIVGIHSASNFTNTNNYFTSVPKNFMELLTNQEAQQWVSGWRLNADSVLWGGHKVFMVKPEEPFQPVKEATQL [T147G] |  |  |  | 0.0822 |  |  | 0.069 |  |  | 
5 | MGESLFKGPRDYNPISSSICHLTNESDGHTTSLYGIGFGPFIITNKHLFRRNNGTLVVQSLHGVFKVKDTTTLQQHLVDGRDMIIIRMPKDFPPFPQKLKFREPQREERICLVTTNFQTKSMSSMVSDTSCTFPSGDGIFWKHWIQTKDGQCGSPLVSTRDGFIVGIHSASNFTNTNNYFTSVPKNFMELLTNQEAQQWVSGWRLNADSVLWGGHKVFMVKPEEPFQVVKEATQL [P228V] | 0.0826 | 0.0875 |  | 0.065 |  |  | 0.119 |  | 0.0694 | 
6 | MGESLFKGPRDYNPISSSICHLTNESDGHTTSLYGIGFGPFIITNKHLFRRNNGTLVVQSLHGVFKVKDTTTLQQHLVDGRDMIIIRMPKDFPPFPQKLKFREPQREERICLVTTNFQTKSMSSMVSDTSCTFPSGDGIFWKHWIQTKDGQCGSPLVSTRDGFIVGIHSASNFTNTNNYFTSVPKNFMELLTNQEAQQWVSGWRLNADSVLWGGHKVFMVKPEEPFQPIKEATQL [V229I] | 0.0294 |  | 0.0721 | 0.0661 |  | 0.0078 | 0.101 |  |  | 
7 | MGESLFKGPRDYNPISSSICHLTNESDGHTTSLYGIGFGPFIITNKHLFRRNNGTLVVQSLHGVFKVKDTTTLQQHLVDGRRMIIIRMPKDFPPFPQKLKFREPQREERICLVTTNFQTKSMSSMVSDTSCTFPSGDGIFWKHWIQTKDGQCGSPLVSTRDGFIVGIHSASNFTNTNNYFTSVPKNFMELLTNQEAQQWVSGWRLNADSVLWGGHKVFMVKPEEPFQPVKEATQL [D82R] |  |  |  |  |  | 0.0454 | 0.0423 |  |  | 
8 | MGESLFKGPRDYNPISSSICHLTNESDGHTTSLYGIGFGPFIITNKHLFRRNNGTLVVQSLHGVFKVKDTTTLQQHLVDGRDMIIIRMPKDFPPFPQKLKFREPQREERICLVTTNFQTKSMSSMVSDTSCTFPSGDGIFWKHWIQTKDGQCGFPLVSTRDGFIVGIHSASNFTNTNNYFTSVPKNFMELLTNQEAQQWVSGWRLNADSVLWGGHKVFMVKPEEPFQPVKEATQL [S154F] | 0.0581 | 0.0771 |  | 0.0734 |  |  |  |  |  | 0.0311

Same assay, conditions: temperature: 34 °C; time window: 0-4 h after rhamnose induction

Row | Variant | area with substrate ENLYGQS | area with substrate ENLYKQS | area with substrate ENLYTQS | area with substrate ENLYEQS | area with substrate ENLYPQS | area with substrate ENLYLQS
9 | MGESLFKGPRDYNPISSSICHLTNESDGHTTSLYGIGFGPFIITNKHLFRRNNGTLVVQSLHGVFKVKDTTTLQQHLVDGRDMIIIRMPKDFPPFPQKLKFREPQREERICLVTTNFQTKSMSSMVSDTSCTFPSGDGIFWKHWIQGKDGQCGSPLVSTRDGFIVGIHSASNFTNTNNYFTSVPKNFMELLTNQEAQQWVSGWRLNADSVLWGGHKVFMVKPEEPFQPVKEATQL [T147G] | 0.0835 | 0 | 0.0498 |  |  | 
10 | MGESLFKGPRDYNPISSSICHLTNESDGHTTSLYGIGFGPFIITNKHLFRRNNGTLVVQSLHGVFKVKDTTTLQQHLVDGRDMIIIRMPKDFPPFPQKLKFREPQREERICLVTTNFQTKSMSSMVSDTSCTFPSGDGIFWKHWIQTKDGQCGSPLVSTRDGFIVGIHSASNFTNTNNYFTSVPKNFMELLTNQEAQQWVSGWRLNADSVLWGGHKVFMVKPEEPFQVVKEATQL [P228V] | 0.0588 | 0.0596 |  | 0.0621 | 0.0829 | 
11 | MGESLFKGPRDYNPISSSICHLTNESDGHTTSLYGIGFGPFIITNKHLFRRNNGTLVVQSLHGVFKVKDTTTLQQHLVDGRDMIIIRMPKDFPPFPQKLKFREPQREERICLVTTNFQTKSMSSMVSDTSCTFPSGDGIFWKHWIQTKDGQCGSPLVSTRDGFIVGIHSASNFTNTNNYFTSVPKNFMELLTNQEAQQWVSGWRLNADSVLWGGHKVFMVKPEEPFQPIKEATQL [V229I] | 0.0657 | 0.0647 |  | 0.0666 | 0.0754 | 
12 | MGESLFKGPRDYNPISSSICHLTNESDGHTTSLYGIGFGPFIITNKHLFRRNNGTLVVQSLHGVFKVKDTTTLQQHLVDGRRMIIIRMPKDFPPFPQKLKFREPQREERICLVTTNFQTKSMSSMVSDTSCTFPSGDGIFWKHWIQTKDGQCGSPLVSTRDGFIVGIHSASNFTNTNNYFTSVPKNFMELLTNQEAQQWVSGWRLNADSVLWGGHKVFMVKPEEPFQPVKEATQL [D82R] |  | 0.0596 |  |  |  | 0.0616
13 | MGESLFKGPRDYNPISSSICHLTNESDGHTTSLYGIGFGPFIITNKHLFRRNNGTLVVQSLHGVFKVKDTTTLQQHLVDGRDMIIIRMPKDFPPFPQKLKFREPQREERICLVTTNFQTKSMSSMVSDTSCTFPSGDGIFWKHWIQTKDGQCGFPLVSTRDGFIVGIHSASNFTNTNNYFTSVPKNFMELLTNQEAQQWVSGWRLNADSVLWGGHKVFMVKPEEPFQPVKEATQL [S154F] |  |  | 0.0543 |  | 0.077 | 

Reference: the supplement of paper PMC12217912
